The structures appear in SMILES notation. In all, about 39,000 compounds went through this assay and about 220 (0.56%) showed activity. This is one part of the list.
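Note: static incubation at 37 °C against the wild-type strain, values averaged over two biological replicates.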

The experiment has as its system Escherichia coli K-12 BW25113. In words: relative growth (OD600 normalised to plate interquartile mean) (fraction); higher = less growth inhibition, active = 0.2 or less. Conditions: 50 µM; LB; incubation time: overnight (16-24 h).
Take `COc1ccc(S(=O)(=O)Nc2ccc3c(c2)C(=O)N([C@H](C)CO)C[C@H](C)[C@H](CN(C)Cc2ccc4c(c2)OCO4)OCCCC[C@@H](C)O3)cc1`: the relative growth was inactive: 0.955.

As to `COc1ccc(S(=O)(=O)N(C)C[C@@H]2OCc3cnnn3CCCC(=O)N([C@H](C)CO)C[C@@H]2C)cc1`, the relative growth is inactive: 0.991.

As for `C[C@@H]1CN([C@H](C)CO)C(=O)c2cc(NC(=O)C3CCCCC3)ccc2O[C@@H](C)CCCCO[C@@H]1CN(C)S(=O)(=O)c1cccs1`, the relative growth is inactive: 0.933.

Turning to `C=CC(=O)NCCN1CCOCC1`, the relative growth was inactive: 0.994.

Turning to `C[C@@H]1CN([C@@H](C)CO)C(=O)c2cc(N(C)C)ccc2O[C@@H](C)CCCCO[C@@H]1CN(C)Cc1ccc(C(F)(F)F)cc1`, the relative growth is inactive: 0.975.

For the compound `C[C@@H]1CN([C@H](C)CO)C(=O)c2c(c3ccccc3n2C)-c2ccccc2CO[C@@H]1CN(C)S(=O)(=O)c1cn(C)cn1`, the relative growth is inactive: 0.996.

As to `CCCN(C)C[C@H]1OCCCC[C@@H](C)Oc2ccc(NS(=O)(=O)c3cn(C)cn3)cc2C(=O)N([C@@H](C)CO)C[C@@H]1C`, the relative growth was inactive: 0.983.

For the compound `COc1cccc([C@@H](N)c2ccccc2)c1`, the relative growth was inactive: 0.981.

With `O=C(N[C@@H]1CC[C@H](CCNS(=O)(=O)c2ccccc2)O[C@H]1CO)c1cnccn1`, the relative growth is inactive: 0.946.

Consider `Cc1ccc(S(=O)(=O)Nc2cccc3c2O[C@@H](CN(C)Cc2ccc(Cl)c(Cl)c2)[C@H](C)CN([C@@H](C)CO)C3=O)cc1`, for which the relative growth is inactive: 1.03.

Turning to `CC(C)c1cc(N2CC[C@@H](N)C2)nc(N)n1`, the relative growth was inactive: 0.977.

As to `C[C@@H]1CN([C@H](C)CO)C(=O)c2cc(NC(=O)Nc3ccc4c(c3)OCO4)ccc2O[C@@H](C)CCCCO[C@@H]1CN(C)C(=O)Cc1ccccc1`, the relative growth was inactive: 1.01.

As for `C[C@H]1CN([C@@H](C)CO)C(=O)c2cc(NC(=O)CCCN(C)C)ccc2O[C@H]1CN(C)Cc1ccc(Oc2ccccc2)cc1`, the relative growth is inactive: 0.945.

As for `COCCO[C@H]1CCN[C@H]1Cc1cnn(C)c1`, the relative growth was inactive: 1.01.

As to `C[C@H](O)C#Cc1ccc2c(c1)O[C@@H](CN(C)C(=O)c1ccncc1)[C@@H](C)CN([C@H](C)CO)S2(=O)=O`, the relative growth is inactive: 0.986.

Consider `C[C@H](CO)N1C[C@H](C)[C@@H](CN(C)Cc2ccc(Oc3ccccc3)cc2)Oc2c(NC(=O)Nc3ccc(F)cc3)cccc2C1=O`, for which the relative growth was inactive: 0.942.

Turning to `C[C@@H]1CN([C@@H](C)CO)C(=O)c2cc(NC(=O)CCCCCC(=O)Nc3ccccc3N)ccc2O[C@@H]1CN(C)C(=O)Nc1ccc(C(F)(F)F)cc1`, the relative growth was inactive: 0.976.

For the compound `O=C(NCCCO)c1cc2ccccc2oc1=O`, the relative growth was inactive: 0.948.

Regarding `C[C@H]1CN([C@@H](C)CO)C(=O)c2cc(NS(=O)(=O)c3cn(C)cn3)ccc2O[C@H]1CN(C)C(=O)Nc1ccc2c(c1)OCO2`, the relative growth is inactive: 0.98.

`COc1ccc(S(=O)(=O)N(C)C[C@H]2OCCCC[C@H](C)Oc3ccc(NC(=O)NC4CCCCC4)cc3C(=O)N([C@@H](C)CO)C[C@H]2C)cc1`: the relative growth was inactive: 0.958.

As for `C[C@@H]1CN([C@H](C)CO)C(=O)c2cc(NC(=O)CCC(F)(F)F)ccc2O[C@H]1CN(C)Cc1ccc(Cl)c(Cl)c1`, the relative growth is inactive: 1.01.

Take `Cc1cc(C(=O)Nc2cccc3c2O[C@H](CN(C)S(C)(=O)=O)[C@@H](C)CN([C@@H](C)CO)C3=O)n(C)n1`: the relative growth is inactive: 0.998.

`COCC(=O)Nc1ccc2c(c1)OC[C@@H](C)N(C(=O)Cc1ccccn1)C[C@H](C)[C@H](OC)CN(C)C2=O`: the relative growth is inactive: 1.

With `COc1ccc(S(=O)(=O)N(C)C[C@H]2OCCCC[C@@H](C)Oc3ccc(NC(=O)Nc4c(C)noc4C)cc3C(=O)N([C@@H](C)CO)C[C@@H]2C)cc1`, the relative growth was inactive: 0.992.

With `CC(C)CC#Cc1ccc2c(c1)O[C@@H](CN(C)C(=O)c1cccnc1)[C@H](C)CN([C@@H](C)CO)S2(=O)=O`, the relative growth is inactive: 0.976.

Regarding `C[C@@H]1CCCCO[C@H](CN(C)Cc2ccncc2)[C@H](C)CN([C@@H](C)CO)C(=O)c2cc(NC(=O)Nc3ccc4c(c3)OCO4)ccc2O1`, the relative growth is inactive: 0.967.

As for `C[C@@H]1CN([C@H](C)CO)C(=O)c2cccc(NC(=O)Nc3ccc(C(F)(F)F)cc3)c2O[C@H]1CN(C)Cc1ccc(-c2ccccc2)cc1`, the relative growth is inactive: 0.987.

For the compound `COc1ccc(CN(C)C[C@H]2OCCCC[C@@H](C)Oc3ccc(NC(=O)NC4CCCCC4)cc3C(=O)N([C@@H](C)CO)C[C@H]2C)cc1`, the relative growth is inactive: 0.988.

Turning to `CN(C)C(=O)N1C[C@@H]2COC[C@@]2(CN2CCOCC2)C1`, the relative growth is inactive: 0.996.

Take `COCC(=O)Nc1ccc2c(c1)OC[C@@H](C)N(Cc1ccccc1OC)C[C@H](C)[C@H](OC)CN(C)C2=O`: the relative growth was inactive: 0.981.

On to `CN1CCN(C(=O)C[C@@H]2CC[C@H]3[C@H](COc4ccc(NC(=O)C5CCOCC5)cc4C(=O)N3C)O2)CC1`, for which the relative growth was inactive: 1.

With `COc1ccc([C@@H]2CC=CC[C@H](C)Oc3ccccc3C(=O)N(C)[C@H](Cc3ccccc3)C(=O)N2)c(OC)c1`, the relative growth was inactive: 0.991.

In the case of `C[C@@H]1CN([C@H](C)CO)C(=O)c2cc(N(C)C)ccc2O[C@@H](C)CCCCO[C@H]1CN(C)C(=O)Nc1ccc(C(F)(F)F)cc1`, the relative growth was inactive: 1.04.

On to `N#CCOc1cccc2ccccc12`, for which the relative growth was inactive: 0.977.

Take `Cc1ccc(C(=O)N2CCN(c3ccc(NC(=O)COc4c(C)cc(C)cc4Br)cc3)CC2)cc1`: the relative growth is inactive: 1.04.

Turning to `C[C@H](CO)N1C[C@H](C)[C@@H](CN(C)Cc2ccc(C(F)(F)F)cc2)Oc2ccc(NS(C)(=O)=O)cc2C1=O`, the relative growth is inactive: 0.958.

Regarding `C[C@@H]1CCCCO[C@H](CN(C)C(=O)NC2CCCCC2)[C@@H](C)CN([C@H](C)CO)C(=O)c2cc(NS(=O)(=O)c3ccc(F)cc3)ccc2O1`, the relative growth was inactive: 0.956.

Consider `C[C@H]1CN([C@@H](C)CO)C(=O)c2cc(NC(=O)Nc3ccc(F)cc3)ccc2O[C@H]1CN(C)S(=O)(=O)c1cn(C)cn1`, for which the relative growth was inactive: 0.997.

For the compound `C[C@@H]1CCCCO[C@H](CN(C)CC2CCCCC2)[C@H](C)CN([C@H](C)CO)C(=O)c2cc(NC(=O)C3CCCCC3)ccc2O1`, the relative growth is inactive: 0.976.

For `C[C@@H]1CCCCO[C@@H](CN(C)C)[C@H](C)CN([C@@H](C)CO)C(=O)c2cc(NC(=O)Nc3ccc(C(F)(F)F)cc3)ccc2O1`, the relative growth was inactive: 0.975.

As to `Cc1cc(C(=O)Nc2cccc3c2O[C@@H](CN(C)S(C)(=O)=O)[C@H](C)CN([C@H](C)CO)C3=O)n(C)n1`, the relative growth was inactive: 0.997.

`COc1cccc(S(=O)(=O)Nc2ccc3c(c2)[C@H]2C[C@H](CC(=O)N4CCCCC4)O[C@@H](CO)[C@H]2O3)c1`: the relative growth was inactive: 1.01.

As to `C[C@@]1(O)N(CC(=O)O)C(=O)OC12CCCCC2`, the relative growth was inactive: 0.992.

`N[C@@H](CSS(=O)(=O)O)C(=O)O`: the relative growth was inactive: 1.01.

On to `Cc1noc(C)c1S(=O)(=O)Nc1ccc2c(c1)CC(=O)N([C@H](C)CO)C[C@@H](C)[C@@H](CN(C)C(=O)Nc1ccccc1)O2`, for which the relative growth is inactive: 1.

In the case of `CC[C@@H](N)c1ccc(C)c(C)c1`, the relative growth was inactive: 1.02.

In the case of `COCC#Cc1ccc2c(c1)O[C@@H](CN(C)S(=O)(=O)c1cccc(OC)c1)[C@@H](C)CN([C@@H](C)CO)S2(=O)=O`, the relative growth was inactive: 1.04.

For `Cc1ccc(S(=O)(=O)Nc2ccc3c(c2)CC(=O)N([C@H](C)CO)C[C@@H](C)[C@@H](CN(C)S(=O)(=O)c2ccc(F)cc2)O3)cc1`, the relative growth was inactive: 1.02.

Turning to `CC(=O)O.Cc1c(-c2ccc(O)cc2)n(Cc2ccc(OCCN3CCCCCC3)cc2)c2ccc(O)cc12`, the relative growth is inactive: 0.842.

For `CCS(=O)(=O)Nc1ccc2c(c1)C(=O)N(C)[C@H]1CC[C@@H](CC(=O)N[C@H]3CCN(Cc4ccccc4)C3)O[C@@H]1CO2`, the relative growth is inactive: 0.991.

With `C[C@H]1CN([C@@H](C)CO)C(=O)c2cccc(NC(=O)C3CCCCC3)c2O[C@@H]1CN(C)Cc1ccc(Cl)c(Cl)c1`, the relative growth is inactive: 0.973.

On to `COc1ccc(S(=O)(=O)N(C)C[C@H]2OCCCC[C@@H](C)Oc3ccc(NC(=O)NC4CCCCC4)cc3C(=O)N([C@@H](C)CO)C[C@@H]2C)cc1`, for which the relative growth was inactive: 1.

As to `Nc1ncnc2c1ncn2CCN1CCOCC1`, the relative growth is inactive: 1.03.

For the compound `C[C@H](CO)N1C[C@H](C)[C@H](CN(C)S(=O)(=O)c2cccs2)Oc2c(NC(=O)c3ccncc3)cccc2C1=O`, the relative growth was inactive: 0.976.

As to `Cn1cnc(S(=O)(=O)N2C[C@@H](O)COC[C@H]3O[C@@H](CC(=O)NC4Cc5ccccc5C4)CC[C@@H]32)c1`, the relative growth was inactive: 0.947.

`C[C@@H]1CN([C@@H](C)CO)C(=O)c2cccc(NC(=O)c3ccc(-c4nccs4)cc3)c2O[C@@H]1CN(C)Cc1ccc(Oc2ccccc2)cc1`: the relative growth is inactive: 0.991.

`COc1ccc(NC(=O)N(C)C[C@H]2OCCCC[C@H](C)Oc3ccc(NC(=O)C4CCCCC4)cc3C(=O)N([C@H](C)CO)C[C@@H]2C)cc1`: the relative growth is inactive: 0.852.

Regarding `C[C@@H]1CN([C@@H](C)CO)S(=O)(=O)c2ccc(C#Cc3ccncc3)cc2O[C@H]1CN(C)C(=O)C1CCCCC1`, the relative growth was inactive: 0.993.

Turning to `C[C@@H]1CN([C@@H](C)CO)C(=O)Cc2cc(NC(=O)NC3CCCCC3)ccc2O[C@@H]1CN(C)C(=O)Nc1cccc2ccccc12`, the relative growth was inactive: 1.03.

`Cc1noc(C)c1S(=O)(=O)Nc1ccc2c(c1)C(=O)N([C@H](C)CO)C[C@H](C)[C@@H](CN(C)Cc1ccc(C(=O)O)cc1)O2`: the relative growth is inactive: 1.01.

Take `COc1cccc(S(=O)(=O)Nc2ccc3c(c2)[C@@H]2C[C@H](CC(=O)NCc4ccccc4F)O[C@H](CO)[C@@H]2O3)c1`: the relative growth was inactive: 1.01.

The values are drawn from the supplement of paper PMC9446081.
